Test results as given in the antibiotic and cytotoxicity screens of Wong et al. (2023).
The other results are listed elsewhere or left out.

Each compound was assayed on S. aureus RN4220 (assay: growth inhibition call (relative growth <= 0.2)). Conditions: 50 µM.

Growth inhibition call, inactive:
C[C@@H]1CN([C@@H](C)CO)C(=O)CCCn2cc(nn2)CO[C@H]1CN(C)S(=O)(=O)c1ccc2ccccc2c1
Cn1cc(CN2CCC(C(=O)N[C@@H](c3ccc(F)cc3)c3ccc4ccccc4n3)CC2)c2ccccc21
C[C@H](CO)N1C[C@H](C)[C@@H](CN(C)Cc2ccc(Oc3ccccc3)cc2)Oc2ccc(NC(=O)Nc3cccc4ccccc34)cc2C1=O
COc1ccccc1CNC(=O)C[C@H]1C[C@@H]2c3cc(NC(=O)C4CCOCC4)ccc3O[C@@H]2[C@@H](CO)O1
Cc1noc(C)c1NC(=O)Nc1cccc2c1O[C@H](CN(C)C(=O)Nc1cccc3ccccc13)[C@H](C)CN([C@H](C)CO)C2=O
CO[C@H]1CN(C)C(=O)c2ccc(NC(=O)NC(C)C)cc2OC[C@H](C)N(Cc2ccc(-c3ccccn3)cc2)C[C@@H]1C
CCC(=O)N[C@@H]1C=C[C@H](CC(=O)OC)O[C@H]1CO
C[C@@H]1CN([C@@H](C)CO)C(=O)c2cccc(NC(=O)C3CCOCC3)c2O[C@@H]1CN(C)S(=O)(=O)c1ccc(Cl)cc1
Cn1cnc(S(=O)(=O)N2C[C@@H](O)COC[C@H]3O[C@@H](CC(=O)NC4CCC4)CC[C@@H]32)c1
COC(=O)[C@H](Cc1ccc(-n2cc(-c3cccc(/C=C/C(=O)NO)c3)nn2)cc1)N1CC2=C[C@H]([C@@H](O)Cc3ccccc3)n3c(=O)n(C)c(=O)n3[C@@H]2[C@@H](C2CC2)O1
C[C@H](CO)N1C[C@H](C)[C@@H](CN(C)Cc2ccc(C(F)(F)F)cc2)Oc2c(NC(=O)Nc3ccccc3)cccc2C1=O
